Like-named read-outs stand apart in the source and are kept apart here. Marks after values point to notes of the source that are not given here.
Columns and labels:
[1] = tested on: Influenza A/NWS/33 (H1N1) virus; type: in vivo, BALB/c mice; conditions: for Mean Day to Death ± SD: mice dying prior to day 21
[2] = tested on: Influenza A/NWS/33 (H1N1) virus; type: in vivo, BALB/c mice
[3] = tested on: Influenza A/NWS/33 (H1N1) virus; type: in vivo, BALB/c mice; conditions: for Mean Day to Death ± SD: mice dying prior to day 21; remark: listed apart in the source
[4] = tested on: Punta Toro virus, Adames strain; set-up: species or system C57BL/6 mice; conditions: mouse, in vivo, ip
[5] = tested on: Punta Toro virus, Adames strain; set-up: species or system C57BL/6 mice; conditions: mouse, in vivo, ip; remark: listed apart in the source
[6] = 75 mg/kg/day i.p. bid x5 beg. 4 h pre-virus
[7] = 75 mg/kg/day i.p. bid × 5 beg 4 h pre
[8] = 37.5 mg/injection i.p. bid × 5 beg. −4 h
[9] = 0.5 ng/kg/day i.p. qd x5 beg. 24 h post-virus
[10] = 5 ng/kg/day i.p. qd x5 beg. 24 h post-virus
[11] = 50 ng/kg/day i.p. qd x5 beg. 24 h post-virus
[12] = 500 ng/kg/day i.p. qd x5 beg. 24 h post-virus
[13] = 5000 ng/kg/day i.p. qd x5 beg. 24 h post-virus
[14] = 0.1 μg/inj. i.p + i.n. days 0, 3, 6
[15] = 1 μg/inj. i.p + i.n. days 0, 3, 6
[16] = 10 μg/inj. i.p + i.n. days 0, 3, 6
[17] = 10 μg/injection i.p. days 0, 3, 6
[18] = 100 μg/injection i.p. days 0, 3, 6
[19] = 500 μg/injection i.p. days 0, 3, 6

NC(=O)c1ncn([C@@H]2O[C@H](CO)[C@@H](O)[C@H]2O)n1 [Ribavirin, reference compound]
Infected, Treated Mice Surv/Total [1, 6]: 10/10*** | Mean Day 11 SaO2 (% ± SD) [1, 6]: 85.1 ± 2.6 % | protection from death [1, 6]: 100% | Infected, Treated Mice Surv/Total [2, 7]: 10/10*** | Mean Day 11 SaO2 (% ± SD) [2, 7]: 87.2 ± 5.5 % | Infected, Treated Mice Surv/Total [3, 8]: 8/8*** | Mean Day 11 SaO2 (% ± SD) [3, 8]: 83.5 ± 1.9 %

B1: rBBX-01: Recombinant Apicomplexa-related protein (ARP) having the sequence of SEQ ID NO:20; termed Barrogen, also called rBBX-01 or E1 (protein, listed as Eimeria tenella)
chain: GEEADTQAWDTSVREWLVDTGRVFAGGVASIADGCRLFGAAVEGEGNAWEELVKTNYQIEVPQEDGTSISVDCDEAETLRQAVVDGRAPNGVYIGGTKYKLAEVKRDFTFNDQNYDVAILGKNKGGGFLIKTPNENVVIALYDEEKEQNKADALTTALNFAEYLYQGGF
Infected, Treated Mice Surv/Total [1, 9]: 0/10 | Mean Day 11 SaO2 (% ± SD) [1, 9]: 75.0 ± 0.0% | Mean Day to Death ± SD [1, 9]: 9.1 ± 1.1 days | Infected, Treated Mice Surv/Total [1, 10]: 0/10 | Mean Day 11 SaO2 (% ± SD) [1, 10]: 75.0 ± 0.0% | Mean Day to Death ± SD [1, 10]: 8.9 ± 1.6 days | Infected, Treated Mice Surv/Total [1, 11]: 0/10 | Mean Day 11 SaO2 (% ± SD) [1, 11]: 75.0 ± 0.0% | Mean Day to Death ± SD [1, 11]: 8.7 ± 1.2 days | Infected, Treated Mice Surv/Total [1, 12]: 0/10 | Mean Day 11 SaO2 (% ± SD) [1, 12]: 77.3 ± 4.8% | Mean Day to Death ± SD [1, 12]: 9.9 ± 2.3 days | Infected, Treated Mice Surv/Total [1, 13]: 0/10 | Mean Day 11 SaO2 (% ± SD) [1, 13]: 76.3 ± 2.6% | Mean Day to Death ± SD [1, 13]: 10.3 ± 1.6 days | SaO2 decline ([1]; 5000 ng/kg/day, days 7 and 8 (FIG. 1)): significantly inhibited | Lung scores ([1]; 5000 and 500 ng/kg/day, day 3 (FIG. 2)): significantly inhibited | lung virus titers ([1]; all doses, either time the lungs were assayed (FIG. 4)): No inhibition | Delay in mean day to death ([1]; highest dosage (5000 ng/kg/day) vs saline, P>0.05): 0.8 days | Infected, Treated Mice Surv/Total ([2]; 0.1 μg/inj. i.n. days 0, 3, 6): 0/10 | Mean Day 11 SaO2 (% ± SD) ([2]; 0.1 μg/inj. i.n. days 0, 3, 6): 75.8 ± 2.5% | Mean Day to Death ± SD ([2]; 0.1 μg/inj. i.n. days 0, 3, 6): 9.9 ± 1.0 days | Infected, Treated Mice Surv/Total ([2]; 0.1 μg/inj. i.p + i.n. (total double dose) days 0, 3, 6): 1/10 | Mean Day 11 SaO2 (% ± SD) [2, 14]: 76.2 ± 3.8% | Mean Day to Death ± SD [2, 14]: 8.8 ± 0.7 days | Infected, Treated Mice Surv/Total ([2]; 0.1 μg/inj. i.p. days 0, 3, 6): 10/10*** | Mean Day 11 SaO2 (% ± SD) ([2]; 0.1 μg/inj. i.p. days 0, 3, 6): 86.7 ± 7.9 % | Mean Day to Death ± SD ([2]; 0.1 μg/inj. i.p. days 0, 3, 6): >21.0 ± 0.0 days | Infected, Treated Mice Surv/Total ([2]; 1 μg/inj. i.n. days 0, 3, 6): 0/10 | Mean Day 11 SaO2 (% ± SD) ([2]; 1 μg/inj. i.n. days 0, 3, 6): 78.4 ± 5.6% | Mean Day to Death ± SD ([2]; 1 μg/inj. i.n. days 0, 3, 6): 11.1 ± 3.1 days | Infected, Treated Mice Surv/Total ([2]; 1 μg/inj. i.p + i.n. (total double dose) days 0, 3, 6): 0/10 | Mean Day 11 SaO2 (% ± SD) [2, 15]: 75.0 ± 0.0% | Mean Day to Death ± SD [2, 15]: 9.0 ± 0.5 days | Infected, Treated Mice Surv/Total ([2]; 1 μg/inj. i.p. days 0, 3, 6): 8/10*** | Mean Day 11 SaO2 (% ± SD) ([2]; 1 μg/inj. i.p. days 0, 3, 6): 84.1 ± 4.0 % | Mean Day to Death ± SD ([2]; 1 μg/inj. i.p. days 0, 3, 6): 13.5 ± 0.7 days | Infected, Treated Mice Surv/Total ([2]; 10 μg/inj. i.n. days 0, 3, 6): 0/10 | Mean Day 11 SaO2 (% ± SD) ([2]; 10 μg/inj. i.n. days 0, 3, 6): 75.9 ± 2.8% | Mean Day to Death ± SD ([2]; 10 μg/inj. i.n. days 0, 3, 6): 10.2 ± 2.1 days | Infected, Treated Mice Surv/Total ([2]; 10 μg/inj. i.p + i.n. (total double dose) days 0, 3, 6): 0/10 | Mean Day 11 SaO2 (% ± SD) [2, 16]: 75.0 ± 0.0% | Mean Day to Death ± SD [2, 16]: 8.5 ± 0.7 days | Infected, Treated Mice Surv/Total ([2]; 10 μg/inj. i.p. days 0, 3, 6): 9/10*** | Mean Day 11 SaO2 (% ± SD) ([2]; 10 μg/inj. i.p. days 0, 3, 6): 84.1 ± 4.6 % | Mean Day to Death ± SD ([2]; 10 μg/inj. i.p. days 0, 3, 6): 18.0 ± 0.0 days | mean lung virus titers reduced compared to the placebo control ([2]; all groups treated i.p., day 6): 0.4-0.8 log10 | lung virus titer reduction ([2]; i.n.+i.p treated group, lowest drug dosage): 1.4 log10 | lung virus titer reduction ([2]; i.p. 10 μg dose, day 1): 0.7 log10 | Infected, Treated Mice Surv/Total [4]: 11/11*** | Mean Day to Death ± SD [4]: >21.0 ± 0.0 | Infected, Treated Mice Surv/Total ([3]; 10 μg/injection i.p. day 0): 1/10 | Mean Day 11 SaO2 (% ± SD) ([3]; 10 μg/injection i.p. day 0): 78.3 ± 4.3% | Mean Day to Death ± SD ([3]; 10 μg/injection i.p. day 0): 13.3 ± 3.0 days | animals survived / prevented from dying ([3]; 10 μg/injection i.p. days 0 (4 h post-virus) and 3): 60% | Infected, Treated Mice Surv/Total ([3]; 10 μg/injection i.p. days 0, 3): 6/10*** | Mean Day 11 SaO2 (% ± SD) ([3]; 10 μg/injection i.p. days 0, 3): 79.6 ± 3.7 % | Infected, Treated Mice Surv/Total [3, 17]: 3/10* | Mean Day 11 SaO2 (% ± SD) [3, 17]: 78.9 ± 5.0 % | preventing death of infected mice [3, 17]: 30% | Mean Day to Death ± SD [3, 17]: 11.1 ± 0.9 days | Mean Day to Death ± SD ([3]; 10 μg/injection i.p. days 0, 3): 15.5 ± 4.0 days | Infected, Treated Mice Surv/Total ([3]; 10 μg/injection i.p. days 0, 6): 0/10 | Mean Day 11 SaO2 (% ± SD) ([3]; 10 μg/injection i.p. days 0, 6): 77.8 ± 3.7 % | Mean Day to Death ± SD ([3]; 10 μg/injection i.p. days 0, 6): 12.2 ± 2.9 days | Infected, Treated Mice Surv/Total [3, 18]: 1/10 | Mean Day 11 SaO2 (% ± SD) [3, 18]: 76.3 ± 2.6% | Mean Day to Death ± SD [3, 18]: 11.3 ± 2.6 days | Infected, Treated Mice Surv/Total [3, 19]: 1/10 | Mean Day 11 SaO2 (% ± SD) [3, 19]: 75.9 ± 2.8% | Mean Day to Death ± SD [3, 19]: 10.6 ± 2.9 days | efficacy ([3]; 500 and 100 μg/injection, 3 day treatment schedule): not considered efficacious | efficacy compared with other immunomodulatory substances in influenza in mice ([3]; ranking Met-Enk>polyprenol>polyICLC>Ampligen®>IM-862=Imu Vert>BCH 527): approximately the same as Met-Enk and polyprenol | Infected, Treated Mice Surv/Total [5]: 11/11*** | Mean Day to Death ± SD [5]: >21.0 ± 0.0

From US7550150B2, “Methods of treating or preventing a disease, disorder or condition associated with a viral infection” (Barros Research Institute, priority 2005, dated 2009)
